Sequences with one replicate were seen in a single cluster, so their values are uncertain.
Test system: ATP
Assay: switch fluorescence ratio, 500 uM ATP over buffer (Cy3 cluster intensity, sum of 5 cycles each) (fold (ratio)); higher = stronger signal-on switching upon ATP binding; sequences stand for … in TCGTCGGCAGCGTCAGATGTGTATAAGAGACAGTTTTTTTTTTTTTTTTTTTTTTTTT…TC
Conditions: aptamer strand: ATP DNA aptamer (quencher-CACCTGGGGGAGTATTGCGGAGGAAGG + anchor), 100 nM annealed; ATP concentration: 500 uM; one replicate
How it was run: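 Exposure to 500 uM ATP lasted 15 min at 22 °C before imaging, and a selection-buffer image was taken beforehand, for Cy3-labelled switching-strand clusters on a modified Illumina MiSeq flow-cell annealed to 100 nM quencher-labelled ATP aptamer. Five buffer/ATP cycles were run with NaOH stripping and re-annealing between them. The fluorescence ratio per cluster is summed target-cycle over summed buffer-cycle Cy3 intensity, averaged per switch-domain sequence. Clusters outside 100-1000 RFU were excluded.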

Sequence | switch fluorescence ratio
AACTCTTGAT | 0.968
GTTTTATAGT | 1
GTCACTGTGA | 1.04
GGTATTCCCG | 1.05
GGTCAAATT | 1.01
GGGGCTGACG | 0.955
ACGTTCACGA | 1.12
GCCTTGTGCC | 0.958
GAGTATTATT | 0.974
AGACGTGGTC | 0.961
CTGGCACTGT | 1.03
ACTGCGTTCC | 1.43
ACACAGTACA | 1.31
TGCAAGTCTC | 1.09
AAAGGTTAT | 0.983
GGCTAGGTTC | 0.952
TTGGTTAACT | 0.967
GTTCTCTTCG | 1.01
TGACAAGGGT | 0.975
GGTGCGGTGT | 0.986
CATTAGGTG | 1.26
CTTACCAACC | 1.22
GGCTTTCTCC | 1.97

Sequence | switch fluorescence ratio
ACATAGGGTT | 1.03
CGCAGGGGCC | 1.07
GGATCGTGGA | 1.01
AATTATTAAC | 1
TTTGGATCGA | 1.3
TGATCAGGCA | 0.98
CTGTCAATGT | 1.11
GAGTGAGCAT | 1.05
TATCTTATGC | 0.996
CGTTCTCGT | 1
ATTCGTGGAA | 1.01
TCTCTGTAAT | 5.74
AGTACTGGGA | 0.975
GACCTCCATA | 1.12
AATATCGACT | 0.994
CACTGGTAGA | 1.06
CTTATGGAGG | 0.993
TTGGAGTATG | 1.01
GCCATTTCTG | 1.01
TTTGATGGTC | 1.02
AGACGATCGT | 0.902
TTGCGGCTCA | 1.07
CAGTGGATTC | 1.02

Sequence | switch fluorescence ratio
TTTACCCAAT | 1.03
TCGCCTTTAG | 1.01
TACGTCTGCC | 0.987
GTACCTGACC | 1.79
ACTATAGTTT | 1.06
AATCTGCAGT | 1.03
AGGGGGGTC | 0.997
CATGGA | 0.987
CGACTTCATC | 1.09
TAGGAAACCC | 1.03
AGACAAAATT | 0.965
AAATAAAATC | 1.11
TCGGACAT | 1.02
CGGACGTGGG | 1.01
GGGTATGGAA | 0.977
AATGATCACT | 1.03
TGTTGGGTCC | 1.02
ATTCCGAGGA | 0.994
TTATCTACTG | 1.1
GCGACCGTTG | 0.994
TAAAACATGA | 0.943
AAAATCTCT | 0.99
TGAGGGTGCC | 1.04

Sequence | switch fluorescence ratio
TATTTTGTAC | 1.07
GGCTTATCCG | 1.02
CTGGATTCGT | 1.01
TTAGGAAGAA | 0.981
AAACCTAGTC | 1.15
CATTTAGAAG | 0.97
TTAAGCGTCG | 1.07
ATCCCGATGT | 1.05
AATCGCTGC | 1.06
CGCTGCGGAC | 2.78
CATGTGCTCT | 1
TGTAGTCGG | 0.955
TCCTGACGTG | 1.05
CGGTTAATAT | 1.22
AAGTAATATC | 1.32
CACAGGCTTG | 0.979
TAACATTTG | 1.03
CGTCGTATTA | 0.959
TTGACACTAT | 1.07
TCGCTCTGAA | 1.03
GGTTTGGCTC | 1.02
AATTTTTCAA | 1.02
TGATCGAGGC | 0.987

Sequence | switch fluorescence ratio
ATGTCGCGGC | 0.987
TTCCCGAGCC | 1.13
GGTTCATCTG | 1.02
GGACATTGGA | 0.994
ATTCGTAATG | 1.04
CGTTCTCACT | 0.974
TTTACCCAGA | 1.03
GCCTGGGGTA | 1.01
GCCTGACGAT | 2.44
TTCTAATAGC | 1.05
CAATAACGTG | 1.06
CTCTGACCAC | 1.42
CAATCAAGTC | 1.01
CGCGCCTATG | 1.03
TCAACATGCT | 1
TTAGAACGCA | 1.12
GGGTTTGCTA | 0.989
CAATGTGCG | 1.01
CGGCGATCAC | 2.4
TATAAGGTTC | 0.97
GAACCACGAG | 1.07
CCCGGATGTT | 1.05
GCCGTCCGC | 0.989

Sequence | switch fluorescence ratio
AAAGTCGGAG | 0.95
ATCAAACTTA | 1.01
TTTTAGCCAC | 1.03
CGTTCTTCAT | 0.992
ATTGGGCCTA | 1.01
GCGGATACAG | 1.05
AAGTGACGTT | 1.03
GTTGTAGTGC | 1.14
AGTGGTGCTA | 1.01
AGCCGGAAAG | 1.03
CATGGACTGC | 1.04
TCATCCGGG | 1.33
GTCAGGGCAC | 1.01
TGAACAGATT | 1.16
ACGACAGTTC | 1.06
CGATCGGGTT | 1.02
GGTTGAATG | 1.03
GGCTTTGCTT | 0.979
GCCGTACTCG | 1.04
TTTTACCTC | 1.02
ACGAGAATAT | 1.05
CGAACTAGTA | 0.969
CGCCAAAGTA | 1.01

Sequence | switch fluorescence ratio
TTCCAGGAGT | 1.23
ACCTCCGAGA | 4.75
ACTTCGGCAT | 1.54
AGCTTATAG | 1.06
GAAACCGGAA | 1.72
CCGGGATTGT | 1.02
CGACGACATG | 1.09
AGACGCGGAT | 1.05
CAAACGTCAA | 3.53
CAGGCCATGA | 1.09
AGCAGTTTCT | 1
GCAGCGCGAT | 1.09
GCCGCTGCAC | 1.34
CGTGGTGCAG | 0.958
TCGTGAATGG | 1.02
TGGAACGAGG | 1
CCTACTTAGT | 1.07
TGGCCCTGAT | 0.966
TGCCATGTCC | 0.988
TTTCGACGG | 1.04

— the supplement of paper PMC10126150
